# Data taken from PubChem BioAssay AID686979 (National Center for Advancing Translational Sciences (NCATS), 2013).
# Hit rate of the full screen: of about 420,000 compounds, about 50,000 (12%) were called active. Inconclusive results, whose numbers are uncertain, are shown with a selection of clear calls. Calls come from the whole dose curve; as a rule, active = well fitted inhibition curve with a large enough effect; inconclusive = small, poorly fitted or top-dose-only effect; inactive = flat fitted curve, though single readings scatter. No potency is given beside an inconclusive call; the fits are too rough.
# Assay: qHTS for Inhibitors of human tyrosyl-DNA phosphodiesterase 1 (TDP1): qHTS in cells in presence of CPT; note: nearly all actives have a fitted effect of over 55% in size
# Conditions: chicken DT40 Tdp1-/-;hTDP1 cells + 20 nM CPT, ATP luminescence, 48 h; activity change, negative = growth inhibition: at 46.2 µM (top of the series) unless noted
# Outline: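 Chicken DT40 Tdp1-/- cells stably complemented with human TDP1 were seeded at 400 cells/well in medium containing 20 nM camptothecin, exposed to pin-transferred compounds, and grown at 37 °C for at least 48 hr. Viability was read as ATP luminescence.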
# % is set by controls: 0 for no effect and ±100 for the full control effect; potency is the fitted concentration of half-maximal effect; tags give direction and shape of the fitted curve.
Compound,Potency,"activity change, negative = growth inhibition"
Cc1ccccc1Cn1c(-c2cccs2)nc2ccccc21,"inconclusive [inhibitor, single point]",
CCC(C)N1CCC(Oc2ccc(C(=O)NCc3ccccn3)cc2)CC1 (configuration not stated),inactive,
CCc1nc2ccc(C(=O)NCCc3c[nH]c4ccccc34)cn2c1N(C)CCCc1ccccc1,"inconclusive [inhibitor, single point]",
CC(C)NC(=O)[C@]1(C)CCC[C@@]2(C)C3CC[C@@]4(C)C[C@]3(CCC21)CC4=O (some centres not stated),"inconclusive [inhibitor, single point]",
CCOc1ccc(NC(=O)C2CCN(S(C)(=O)=O)CC2)cc1,"inconclusive [inhibitor, single point]",
CCCCNC(=O)c1ccc2nc(CC)c(N(CC)CCOC)n2c1,active: 25.9 µM,
Cc1ccc2nc(CSc3nnc(NC(=O)CC(C)C)s3)cc(=O)n2c1,"inconclusive [inhibitor, single point]",
Cc1cc(SCC(=O)N/N=C/c2ccc(O)c(O)c2)nc2ccccc12,"inconclusive [inhibitor, single point]",
N#Cc1ccc(/C=N/NC(=S)Nc2ccc(S(=O)(=O)N3CCOCC3)cc2)cc1,"inconclusive [inhibitor, single point]",
Cc1ccc(NC(=O)CCCCCN2C(=O)[C@@H]3Cc4ccccc4CN3C2=O)c(C)c1,"inconclusive [inhibitor, single point]",
Cc1ccc(NC(=O)CSc2nnc(Cn3cnc4ccccc43)o2)cc1,inactive,
Cc1sc2nc(CN3CCOCC3)nc(NS(=O)(=O)c3cc(Cl)ccc3Cl)c2c1C,inactive,
CN1CCN(c2ccc(NC(=O)c3cccc(S(=O)(=O)N4CCCC4)c3)cc2)CC1,inactive,
Cc1ccc(S(=O)(=O)CCC(=O)Nc2nc(-c3ccncc3)cs2)cc1,active: 23.1 µM,
Cc1ccc(CN2CCN(/N=C/c3ccc(Cl)c([N+](=O)[O-])c3)CC2)cc1,"inconclusive [inhibitor, single point]",
COc1ccc(OCc2nnc(SC(C)C(=O)Nc3nccs3)n2-c2ccccc2)cc1 (configuration not stated),"inconclusive [inhibitor, partial curve]",
CNc1cc(N2CCCCCC2)ccc1[N+](=O)[O-],"inconclusive [inhibitor, single point]",
COC(=O)C1=C(C)NC(=O)NC1c1ccc(N2CCC(c3ccccc3)=N2)cc1 (configuration not stated),"inconclusive [inhibitor, single point]",
COc1ccc(Cl)cc1C(=O)Nc1ccc2c(c1)OCCO2,"inconclusive [inhibitor, single point]",
CN(C)CCCNC(=O)C[C@H]1C[C@H](C(=O)N2CCOCC2)[C@@]2(C)c3[nH]c4cc(-c5ccco5)ccc4c3CCN2C1=O,"inconclusive [inhibitor, single point]",
CN(CC(=O)NCC1CCCO1)S(=O)(=O)c1ccc(Br)cc1 (configuration not stated),inactive,

Compound,Potency,"activity change, negative = growth inhibition"
C(#CCN1CCCC1)CC(c1ccccc1)c1ccccc1,"inconclusive [inhibitor, single point]",
CC1(C)Cc2nc(Cl)c(C#N)cc2CO1,"inconclusive [inhibitor, single point]",
Cc1ccc(Cn2c(CN3CCC(C(=O)NCc4cccnc4)CC3)cc3ccccc32)cc1,"inconclusive [inhibitor, single point]",
CCN(CC)CC(O)CN(c1ccccc1)S(=O)(=O)c1ccc2ccccc2c1 (configuration not stated),"inconclusive [inhibitor, single point]",
Cc1ccc2nc(-c3ccc(NC(=O)C(C)Sc4nncs4)cc3)sc2c1 (configuration not stated),"inconclusive [inhibitor, partial curve, poor fit]",
CSc1ccc(CN2CCC(C)(Oc3ccc(C(C)=O)cc3)C2)cc1 (configuration not stated),"inconclusive [inhibitor, single point]",
O=C(CSc1nc2ccc(Cl)cc2[nH]1)c1c[nH]c2ccccc12,"inconclusive [inhibitor, single point]",
NC(=O)CSc1nc2cc3c(cc2c(=O)n1CCCCCC(=O)NCc1ccc2c(c1)OCO2)OCO3,inactive,
COc1ccc(OC)c(NC(=O)CSc2c3c(nc4cc(Cl)ccc24)CCCC3)c1,"inconclusive [inhibitor, single point]",
CC(=O)c1cccc(NC(=O)CCS(=O)(=O)c2ccc3c(c2)n(C)c(=O)c(=O)n3C)c1,inactive,
COc1ccccc1CNc1nc2cc(-c3sccc3C)sc2c(=O)n1C,active: 18.4 µM,
COCCn1nnnc1C(c1cc2ccc(OC)cc2[nH]c1=O)N1CCc2ccccc2C1 (configuration not stated),inactive,
COc1ccc(-c2cc(=O)oc3cc(OCC(=O)NCCN4CCOCC4)ccc23)cc1,"inconclusive [inhibitor, single point]",
O=C1CCCC(O)=C1C=Nc1ccc2c(c1)oc1ccccc12,"inconclusive [inhibitor, full curve, poor fit]",
Cc1cc(C)c(S(=O)(=O)N2CCCC(C(=O)NC3CC3)C2)c(C)c1 (configuration not stated),inactive,
CCOC(=O)C1CCCN(C(=O)C2CCN(Cc3nc(-c4ccc(Cl)cc4)oc3C)CC2)C1 (configuration not stated),"inconclusive [inhibitor, single point]",
CCOc1ccc(OCC)c(S(=O)(=O)N2CCCCC2)c1,,inconclusive: -31% [inhibitor]
COc1ccc(NC(=S)NC(=O)/C=C/c2ccco2)cc1,"inconclusive [inhibitor, single point]",
CCCCCCCCC(=O)N1CCN(c2cc3c(cc2F)c(=O)c(C(=O)O)cn3CC)CC1,inactive,
COc1ccc(OC)c(NC(=O)C2CCCN(S(=O)(=O)c3ccc4[nH]c(=O)ccc4c3)C2)c1 (configuration not stated),"inconclusive [inhibitor, partial curve, poor fit]",
COc1ccccc1NC(=O)Nc1ccc2[nH]c(=O)[nH]c2c1,"inconclusive [inhibitor, single point]",
